In all, about 81,000 sequences were measured (“one-hybrid fitness for binding parS DNA”: median about -0.17, highest 2% from about 0.51 on). The list shows a part of the results.
B1: Caulobacter ParB omega fusion; a variant is named by its letters at X, in order, B8GW30 (parent)
chain: MESVVVGEPGMSEGRRGLGRGLSALLGEVDAAPAQAPGEQLGGSREAPIEILQRNPDQPRRTFREEDLEDLSNSIREKGVLQPILVRPSPDTAGEYQIVAGERAWRAAQRAGLKTVPIMVRELDDLAVLEIGIIENVQRADLNVLEEALSYKVLMEKFERTQENIAQTIGKSXSHVANXMRLLXLPDEVQSYLVSGELTAXHARAIAAAADPVALAKQIIEGGLSVRETEALARKAPNLSAGKSKGGRPPRVKDTDTQALESDLSSVLGLDVSIDHRGSTGTLTITYATLEQLDDLCNRLTRGI

Variants of: B1
Test: one-hybrid fitness for binding parS DNA (scaled: cognate 1, non-cognate 0); higher = stronger binding
Settings: with parS DNA site
Method in brief: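 Bacterial one-hybrid selection in E. coli USO rpoZ- hisB- pyrF- with a HIS3 reporter carrying the site 19 bp from the promoter, screening Caulobacter ParB libraries with four specificity codons randomised (NNS). Cells grew 48 hours at 37°C on M9-minus-histidine plus 0.1 mM IPTG and 5 mM 3-AT. Plasmids before and after selection were Illumina-sequenced, three replicate libraries pooled, and variants under 10 reads dropped. Fitness is the log change in variant-to-wild-type read ratio, rescaled to cognate 1, non-cognate 0.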

one-hybrid fitness for binding parS DNA, 0.819:
RNKT

one-hybrid fitness for binding parS DNA, 0.225:
RCVW

one-hybrid fitness for binding parS DNA, ≤ 0.2:
QVAR
SQNF
YQHH
KAFG
RWYW
HSTA
PNEY
NGMG
GAQD
ALDL
DFLA
HMKV
MVSS
NVRK
NLPC
MEAR
TKRY
VFPW
PTVE
QFKF
AVHN
NRYS
HDEP
QCVR
YRMT
WTNC
MMTQ
HVHT
RAQK
REGK
MDCT
PRIA
VPIR
NMNG
SEMG
LADV
AFRV
TIRG
SQKF
PQIK
DMHV
HFAT
YAPG
AVPV
ETIY
SESH
CMLG
QFCG
SGSI
YADG
AQTD
LNPE
ACDS
TKRD
HKMS
QWLM
NNRL
RSKQ
QRNT
TDEG
TALI
MAKS
PQAY
LVKL
VTQD
VTHS
CRKS
DATD
LGNY
DWKS
KRQV
CMFG
GPPP
NTRS
DSTI
YAME
HGWD
DCKY
TVFY
MKYY
STSY
MRQR
RYEQ
FQPL
NWSG
GDPD
GTPV
AWGG
HQNV
MPPA
TTHW
PPFS
RPAQ
SYPS
FTVG
LHPT
MSDQ
GNER
FARR
GHTV
GQVR
WHCG
YPPT
AVCV
HVET
ANWG
IPSY
QYHG
LAPE
REGR
GCSE
TLIK
LKDC
DIDS
LNSR
WTGT
CHLY
AILK
CMSI
FMYS
FGGA
VLSC
PAHF
LFVI
RESH
ATEI
QQYR
VYGC
SILR
THYY
VKQR
LYRC
RQDP
SPWG
ARNV
DLVM
QCSM
SVLV
TSVF
KTRK
AATC
TVVD
ATWE
TTTK
QLPT
TTLS
NDID
STVC
IIDE
NSKR
YSDN
YSRD
GAKP
PVSI
RKDP
VDAM
TDTK
NTRC
IWCG
RINE
DAVC
VDWP
RKYH
VTSG
LCIS
RYFK
WEKT
GRDW
GLGR
ALHP
RPTQ
PRIG
SPDR
YNNF
RPIE
YRKW
HNGV
LRKF
SKMD
PNYP
HINT
SNMV
YRQH
TVYA
CDCF
ILMC
EVIT
TSTS
MFSR
HRQQ

one-hybrid fitness for binding parS DNA, 0.271:
RFCM

one-hybrid fitness for binding parS DNA, 0.485:
RVNY

one-hybrid fitness for binding parS DNA, 0.495:
RLQY

Reference: a collection of fitness landscapes (doi:10.1016/j.celrep.2020.107928)
